# Reference: PubChem BioAssay (NCATS)
# Records with an inconclusive call do not appear. Calls come from the whole dose curve. Some compounds were tested as several samples or in several runs, with calls that do not always agree. A number of entries come with more than one value. Only these are listed. There may be further records. Values given together are repeats (runs, samples, wells, individuals or studies). A tag in brackets gives the origin of a value. Letters count within one entry.
# Biological target: Retinoic acid receptor RXR-alpha (Homo sapiens) (UniProt P19793)
# Chain of UniProt P19793 (P19793 whole entry, looked up): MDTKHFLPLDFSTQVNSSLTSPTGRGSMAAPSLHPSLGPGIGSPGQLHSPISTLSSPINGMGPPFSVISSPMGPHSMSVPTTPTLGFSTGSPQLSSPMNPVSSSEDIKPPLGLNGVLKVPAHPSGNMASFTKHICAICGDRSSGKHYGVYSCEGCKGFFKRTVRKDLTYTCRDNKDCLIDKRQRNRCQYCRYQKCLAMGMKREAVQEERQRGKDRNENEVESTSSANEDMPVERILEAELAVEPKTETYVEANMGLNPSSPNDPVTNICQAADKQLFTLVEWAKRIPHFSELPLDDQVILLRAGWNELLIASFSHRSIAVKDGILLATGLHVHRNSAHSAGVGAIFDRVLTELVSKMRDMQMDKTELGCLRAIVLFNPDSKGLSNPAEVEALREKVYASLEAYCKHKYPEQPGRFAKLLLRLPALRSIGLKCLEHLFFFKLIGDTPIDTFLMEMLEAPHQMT
# Experiment: qHTS assay for small molecule agonists of retinoid X receptor alpha signaling (AID 588544)
# Settings: HEK293T RXRa-UAS-bla, beta-lactamase reporter, 18 h; series mostly up to 76.7 µM
# Potency is the fitted concentration of half-maximal effect.
smiles,measurement,value
c1ccc(-c2ccccc2)cc1,Potency,inactive [sample A] and active: 35.5 µM [sample B]
